The source gives no read counts; variants with many changes may rest on few reads.

To fix the notation:
B1: LINE1-mini (parent)
chain: GGCAGAGCUCAACACAGCGUGGCAAAGUGGCUGUGGCUAGACUGCC

The variants in the data set derive from B1. As to the kind of experiment: self-cleavage, relative activity (ratio to wild type); higher = more cleavage; in vitro, sequencing; the parent is a self-cleaving ribozyme.
On to G7A C13U U20C, for which the self-cleavage turned out to be 0.2. Regarding G7A A12U G17A U20A C37U, the self-cleavage is 0.02. As to A6U G36C G40U, the self-cleavage was 0.01. To A6U G22U G35C G36C C37U G40C belongs 0.08; to A6U G22C U34C, 0.06; to A6U G19C C37G A41U C42A, 0. As to G7A A14U C37G, the self-cleavage came out at 0.11.

For A6U C31G G33A, the self-cleavage is 0.07.

As to G7A A24G C31A, the self-cleavage was found to be 0.15.

As to A6U G22C G29A, the self-cleavage was 1.25.

Turning to G7A A24U A26C U32C C42A, the self-cleavage turned out to be 0.23. To A6U U38A A39G belongs 0.02; to A6U U32C G35U, 0.05. To A6U G22U U43G belongs 0.04; to A6U G7U C10A C31U, 0.02. As to G7A A12U C15G G22A G36A, the self-cleavage was determined as 0.17. To G7A C13A A14C belongs 0.07; to G7A C10A C13A C15U C18U G29A, 0.01; to A6U G7U C23A A26C C42A C46A, 0.09. To A6U U9A C10G C23U C31U belongs 0.03; to A6U G7C G22U A41G, 0.05. To G7A C10G A16U A26U G33U belongs 0.01; to G7A A12U A24U G30U G35U, 0.23. For A6U U9C C10G G17A C45G, the self-cleavage is 0.02. In the case of G7A A25G A26C U28G, the self-cleavage was found to be 0.03. To G7A C8U C15A C18U C42A belongs 0.43. As for G7A A24C G33C, the self-cleavage was 0.05. Turning to G7A A11C G36A C37A, the self-cleavage came to 0.07. To A6U G22U C23G G36A belongs 0.49.

A6U G29U C46G: the self-cleavage came to 0.81. In the case of A6U U20G G29U, the self-cleavage came to 0.2. To A6U G21U A25U belongs 0.79; to G7A C10A G21U G29U C31G, 0.04; to G7A A39U C46U, 0.01. To G7A A12C G27U G40U belongs 0.01; to G7A A11C C18A G40C, 0.01.

Consider G7A A12C G30U C31A, for which the self-cleavage came to 0.03. To G7A C8G G40C belongs 0.03. To A6U G30A C45U belongs 0.79. As to G7A C8U G40A, the self-cleavage amounted to 0.23. To G7A A12U A26G C31U belongs 0.08. To G7A A16U U38A A39U belongs 0.06. To G7A A11U C13U A41G belongs 0.12. In the case of G7A A12G C13G C15U C37U, the self-cleavage was 0.07.

For G7A C10G C18A C31A U32C, the self-cleavage turned out to be 0.02. To A6U U38G C46U belongs 0; to A6U G19A A24U G29U C31A, 0.1; to G7A C10U C15U G17U G27A G30C, 0.05. Turning to G7A C10U U28G A41U C45A, the self-cleavage is 0. To A6U U9A U20C U32A C37G A39C C45A belongs 0.04; to A6U U20G G30C C31U U38G G40U A41C C46A, 0.03; to G7A C8A A14G U20G, 0.21. Turning to G7A A16C C18U G36A, the self-cleavage is 0.09.

Regarding A6U G7C A12U A24U A26U C31A, the self-cleavage was found to be 0.02. To G7A A14C G17A C42G belongs 0.02; to A6U G7U A26C G40U C45U, 0.14; to G7A A12G C31G, 0.02. For G7A A12C C13U G17U U43C, the self-cleavage worked out at 0.08. As for G7A C8G C23A A24G C42A, the self-cleavage came out at 0.31. A6U U43G C45A: the self-cleavage was found to be 0.06. To G7A A25U U34A belongs 0.07; to G7A A12U G19U A24G A25U, 0.11. To G7A A24G G27U belongs 0.01.

Regarding A6U U20A U28G C45U, the self-cleavage was 0.44. To A6U U9A G21U G27C belongs 0.08; to G7A C8A G40U, 0.15. To G7A C13G G19A U32A belongs 0.31; to G7A C10A C18U C23U, 0.02; to G7A A16G C23G C37A, 0.15. For A6U U20G G44A, the self-cleavage amounted to 0.19. Take A6U G7C G19A U34G: the self-cleavage stood at 0.09. As for A6U G7A A25G G30A G36A U43A, the self-cleavage stood at 0.02. In the case of A6U U32G U34C A41C C46U, the self-cleavage came out at 0.06. Take A6U G7U A11G A12C C13G U34G: the self-cleavage was 0.01. To G7A C13A A24U belongs 0.13. To G7A A11U A12C belongs 0.01; to A6U U20G U38A, 0.2. A6U G27C U28C G29C U32A G44A: the self-cleavage was 0.11. To A6U G7C U9C G19C belongs 0.03; to G7A C13A G17U A25U U34A, 0.07. To G7A A26G G29A belongs 0.2; to G7A A16C G17C G35C, 0.02; to G7A C8U G33U, 0.28. To G7A A12C A25C belongs 0.02. Regarding G7A A14C U28A U34A, the self-cleavage turned out to be 0.01. To G7A A14U G30U belongs 1.66; to A6U G29A A41U C42A, 0.04; to A6U G21C G36A, 0.14. As for G7A A16G G30A A39G G40C C45A, the self-cleavage was 0.01. To G7A C13A A25C U28C G44A belongs 0.1; to A6U G22A A24G, 0.4; to A6U C37G A39G, 0.02. On to G7A C10A C18A G21A G35U, for which the self-cleavage was 0.06. In the case of A6U G35C G36C, the self-cleavage was found to be 0.05. In the case of G7A C10G C13A G33A G44A, the self-cleavage is 0.02.

Regarding G7A A11U G22U U28C A41U G44A, the self-cleavage amounted to 0.02.

Turning to G7A C8G A11G C23U, the self-cleavage stood at 0.03. With G7A A12C U20A U28C G35C, the self-cleavage amounted to 0. To G7A C13A G17U belongs 0.91; to A6U G19A A24C C45A, 0.09. For the variant A6U U20C G30U, the self-cleavage was 0.12.

Turning to A6U G27C G33U, the self-cleavage was found to be 0.03. To G7A C13A U38G belongs 0.03; to G7A C8U C46G, 0.26. To G7A A11U A16C C18A A41C belongs 0.01; to G7A C13U G29A, 0.36; to G7A A26U C31A, 0.03. In the case of A6U G7C G22A G40C, the self-cleavage was found to be 0.09. To G7A C13A G17C C18A belongs 0.05; to A6U U34G C46U, 0.06; to A6U G7C C18A U20G G22A G35A C37U A39G, 0.01. As to A6U G29U G33A U38G, the self-cleavage is 0.01. To G7A A14C G29C A41G C46U belongs 0.

Take G7A A11G C42A: the self-cleavage came to 0.01. To A6U G33A A39G G44U belongs 0.05. To A6U U32G G33C U34C G35U belongs 0; to G7A C8G G29A C31A, 0. To A6U U34A C42A G44U belongs 0.06; to G7A A16G G21A U28C U32A, 0.13. On to A6U G7U G21U, for which the self-cleavage is 0.26.

On to A6U G29C U43C, for which the self-cleavage was determined as 0.51. To G7A A16U G19U G21C C37G G44A belongs 0.05; to A6U G21U G22A C31A C37U, 0.03; to G7A A14C C42A C45A, 0.08. Consider A6U U32G A39G, for which the self-cleavage was 0.11. To G7A C8A A25U G40U belongs 0.25; to G7A C8U G17A G35C, 0.13; to G7A A14U U20G G21A C45U, 0.46. To A6U U43A C46U belongs 0.4; to G7A C10A A12U G17U G35U C46A, 0.05. To G7A C8A G19A belongs 0.34. For A6U U20G G22A C42U, the self-cleavage amounted to 0.09. To G7A C10G A16C C42A belongs 0; to A6U U32G U38C, 0.25; to A6U U34C C45G, 0.11. To G7A A26G G44A belongs 0.19. To A6U G7C A16U C23G G44U C46A belongs 0.21. Consider A6U G19A G35U, for which the self-cleavage was determined as 0.11. As to A6U G21C A25C G35U, the self-cleavage was determined as 0.07. To A6U G7U U9C A39U belongs 0.12; to G7A A12U G17U A39C, 0.08; to A6U G33A U38C, 0.16. To A6U G7U C46G belongs 0.29; to G7A C13A G17A A24C U32G, 0; to G7A A39U A41U, 0.34. With G7A C8G C46U, the self-cleavage amounted to 0.12. To G7A A14C U32A G44C belongs 0.05.

Turning to G7A C13G G21U G29C G36C U38A, the self-cleavage came to 0.02.

G7A A11U G29C: the self-cleavage was 0.02. Consider A6U G36A C46G, for which the self-cleavage came out at 0.53. To G7A A12C A26U belongs 0.01; to G7A C10A U28C A41U, 0.01; to A6U U32A A41C, 0.03. A6U U9G C18G G22A U32C: the self-cleavage amounted to 0.09.

With G7A A11G A24G, the self-cleavage turned out to be 0.01. To A6U G40C C42A belongs 0.04. With G7A C10A A39U A41C, the self-cleavage stood at 0. To G7A A12U G19C A26U G30A belongs 0.19.

G7A A26C G40U C42U C45A: the self-cleavage is 0.09.

Consider G7A C8A A14U A41G, for which the self-cleavage turned out to be 0.24. To G7A C10A C15G U32G C46U belongs 0.01; to A6U G27C U38A A41G, 0.3. To A6U G19C A26G C42G belongs 0.01.

Turning to G7A A12C U34G, the self-cleavage was 0.01.

Consider A6U G30U U32G C46A, for which the self-cleavage is 0.04.

For A6U C31U G35U, the self-cleavage was 0.05. To A6U U20A U28A A39G belongs 0.06.

The values above are taken from the RNAGym collection of RNA variant scans (doi:10.7554/elife.90254).
